The test system of experiment [1] is HSkMC (human skeletal muscle cells). The experiment is described as follows: cytotoxicity call (relative viability < 0.9). Particulars: 10 µM.
Experiment [2] has as its system HepG2. The experiment is described as follows: cytotoxicity call (relative viability < 0.9). Particulars: 10 µM.
Experiment [3] concerns S. aureus RN4220. The experiment is described as follows: growth inhibition call (relative growth <= 0.2). Particulars: 50 µM.

This is one part of the list.

As for `Cc1noc(C)c1S(=O)(=O)Nc1ccc2c(c1)C(=O)N([C@H](C)CO)C[C@H](C)[C@H](CN(C)Cc1ccccc1)O2`, the cytotoxicity call in experiment [1] and in experiment [2] was “inactive” in each case. For the same compound, the growth inhibition call in experiment [3] was “inactive”.

With `COc1ccc2[nH]c(S(=O)Cc3ncc(C)c(OC)c3C)nc2n1` (stereo not given), the cytotoxicity call in experiment [1] and in experiment [2] was “inactive” each time. Besides, in experiment [3], the growth inhibition call is “inactive”.

`CC(C)(C)OC(=O)C[C@H]1CC=CC[C@@H](CC(=O)N[C@@H](CO)Cc2ccccc2)C(=O)N[C@@H](C(C)(C)C)COC1=O`: the cytotoxicity call in experiment [1] and in experiment [2] was “inactive” throughout. Moreover, in experiment [3], the growth inhibition call is “inactive”.

`COc1ccc(NC(=O)N(C)C[C@@H]2OCCCC[C@@H](C)Oc3ccc(NC(=O)CCCCCC(=O)Nc4ccccc4N)cc3C(=O)N([C@H](C)CO)C[C@@H]2C)cc1`: the cytotoxicity call in experiment [1] and in experiment [2] was “inactive” throughout. Also, the growth inhibition call in experiment [3] is “inactive”.

Turning to `C[C@@H]1CN([C@@H](C)CO)C(=O)c2cc(C#Cc3ccccc3)cnc2O[C@@H]1CN(C)S(=O)(=O)c1ccccc1F`, the cytotoxicity call in experiment [1] was “inactive”. Further, the cytotoxicity call in experiment [2] was “active”. Moreover, the growth inhibition call in experiment [3] is “inactive”.

As for `C[C@H](CO)N1C[C@H](C)[C@H](CN(C)C(=O)NC2CCCCC2)Oc2c(NC(=O)Nc3ccc(C(F)(F)F)cc3)cccc2C1=O`, the cytotoxicity call in experiment [1] is “inactive”. Also, in experiment [2], the cytotoxicity call is “active”. Also, the growth inhibition call in experiment [3] was “inactive”.

As for `C[C@H]1CN([C@@H](C)CO)C(=O)c2cccc(NC(=O)CCCCCC(=O)Nc3ccccc3N)c2O[C@@H]1CN(C)C(=O)Nc1ccc(F)cc1`, the cytotoxicity call in experiment [1] and in experiment [2] was “inactive” each time. In addition, the growth inhibition call in experiment [3] was “inactive”.

Regarding `NCc1ccccc1-c1ccsc1`, the cytotoxicity call in experiment [1] and in experiment [2] was “inactive” in each case. Moreover, the growth inhibition call in experiment [3] was “inactive”.

`CC(C)n1c(C=CC(O)CC(O)CC(=O)[O-])c(-c2ccc(F)cc2)c2ccccc21.[Na+]` (stereo not given): the cytotoxicity call in experiment [1] is “inactive”. Further, the cytotoxicity call in experiment [2] was “active”. The growth inhibition call in experiment [3] is “inactive”.

In the case of `C[C@@H]1CN([C@@H](C)CO)C(=O)c2cc(NC(=O)Nc3ccc(F)cc3)ccc2O[C@@H](C)CCCCO[C@H]1CN(C)S(=O)(=O)c1cccs1`, in experiment [1], the cytotoxicity call is “inactive”. In addition, the cytotoxicity call in experiment [2] is “active”. The growth inhibition call in experiment [3] was “inactive”.

These data come from the antibiotic and cytotoxicity screens of Wong et al. (2023).
